# Test results: paper PMC7819943, “Rice protein-binding microarrays: a tool to detect cis-acting elements near promoter regions in rice”
# This is one part of the list.
# Target: T1, OsWOX13 (Oryza sativa, UniProt Q5QMM3 1-267)
# T1 sequence: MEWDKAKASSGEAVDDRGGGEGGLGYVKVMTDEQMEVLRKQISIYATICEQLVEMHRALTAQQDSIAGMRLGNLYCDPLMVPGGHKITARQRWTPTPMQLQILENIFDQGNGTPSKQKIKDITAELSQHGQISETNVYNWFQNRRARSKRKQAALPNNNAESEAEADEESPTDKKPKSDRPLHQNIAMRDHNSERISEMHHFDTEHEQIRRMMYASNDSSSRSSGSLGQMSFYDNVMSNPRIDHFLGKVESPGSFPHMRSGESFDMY
# Test: protein-binding microarray (RPBM); PBS, 2% BSA, 51.3 ng/ul salmon testes DNA, 50 uM zinc acetate, 200 nM TF, 25 C, 1 h; high values mean tight binding
# Conditions: protein: recombinant; tags: N-terminal polyhistidine and DsRed monomer fusion (pET32a); label: CyDye5-dUTP incorporated in the synthesized complementary strand; 3' TTTTT single-stranded linker to array surface; dsDNA, one strand shown
# Summary of the method: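 Binding signal is defined as the fluorescence intensity of each feature in arbitrary units, read on an Axon 4000B scanner. Transcription factors with N-terminal polyhistidine and DsRed fusions came from E. coli BL21-CodonPlus and were purified on Ni–NTA. They were incubated at 200 nM for 1 h at 25 °C on a custom Agilent array that had been made double-stranded with Cy5-dUTP, with 50 µM zinc acetate present, and the array was washed.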
row,Sequence,binding signal
1,TATCAATAACAAACTAATGAAATTGCTTTGTTAAACTGTACGGAGTCACCTAGTGCAG,11200 fluorescence intensity (a.u.)
2,CCCAATTGGTGATTAGATAATCCTGTCACTTTCTTCAAGTCGGAGTCACCTAGTGCAG,54100 fluorescence intensity (a.u.)
3,TTTCCTTTGAAGAACACTAATTAGCATTTTGGACTGGGTTCGGAGTCACCTAGTGCAG,7120 fluorescence intensity (a.u.)
4,ATTAAATCGACTATAGATGATTTGAAGCTAATAGTTGACTCGGAGTCACCTAGTGCAG,13900 fluorescence intensity (a.u.)
5,TCCCATTTGATTAAAATTCTCTGCAAAGCATACCAGTGATCGGAGTCACCTAGTGCAG,10000 fluorescence intensity (a.u.)
6,ACTTGATTGGGCCGACGATGCACGGCAAGGAGCAGAGGCACGGAGTCACCTAGTGCAG,46500 fluorescence intensity (a.u.)
7,TTCTCGCTAATGACATGTGATTGGGAGAAATGCGTGGTGGCGGAGTCACCTAGTGCAG,49600 fluorescence intensity (a.u.)
8,AATGATTCCAAAATTGAGTTTTAAAATTCAAATTTGACTACGGAGTCACCTAGTGCAG,5620 fluorescence intensity (a.u.)
9,ATGTTGAGTTAATTGTTCACGAGCCTTGTACCTGGTGCCACGGAGTCACCTAGTGCAG,6830 fluorescence intensity (a.u.)
10,TGCTAATTTATATGTAACACATTTATCAGACCCAGTAGAACGGAGTCACCTAGTGCAG,31700 fluorescence intensity (a.u.)
11,GGCAATGACAGCAGTTAATGATGGGGATGAGCAGATCGGCCGGAGTCACCTAGTGCAG,18300 fluorescence intensity (a.u.)
12,AGGTGGAGGATTTAATAGAATTAATTTAACGTATAGATGTCGGAGTCACCTAGTGCAG,3560 fluorescence intensity (a.u.)
13,ATGATTTCTTACTAGATAGGATTAAGTTTCAAGAGTTAATCGGAGTCACCTAGTGCAG,10600 fluorescence intensity (a.u.)
14,AAACTAATCGATTAGACATGCTCGTGGTCATGAGCGGCGTCGGAGTCACCTAGTGCAG,4800 fluorescence intensity (a.u.)
15,TGTAATAAATTTGACATATGTTTCATATTCAAGACAATTTCGGAGTCACCTAGTGCAG,4710 fluorescence intensity (a.u.)
16,GAAGCTAATACTTAATTAATCACATATTAATAGATTGCTCCGGAGTCACCTAGTGCAG,14200 fluorescence intensity (a.u.)
17,AAATTGACAAGATAGATCAATATATAATATATCACTACACCGGAGTCACCTAGTGCAG,10200 fluorescence intensity (a.u.)
18,AGCGTCGCCTTAATTGGCCTTCTAAGTGGTAGATGCCGTCCGGAGTCACCTAGTGCAG,12600 fluorescence intensity (a.u.)
19,TCTGCGAAACTCACAATCATATCTCAAATTTATGAGTTATCGGAGTCACCTAGTGCAG,4230 fluorescence intensity (a.u.)
20,CATGATGGCAATCTCCCGTTGGGCCTACCAGCCGAAAAGTCGGAGTCACCTAGTGCAG,7310 fluorescence intensity (a.u.)
21,TGTGTCGCAATCAATGATAGAGCAGCCGTTCGATCATCTTCGGAGTCACCTAGTGCAG,12600 fluorescence intensity (a.u.)
22,ATATAATTAAATAATATTATCCGTTTTGTAACTATTTGTTCGGAGTCACCTAGTGCAG,23400 fluorescence intensity (a.u.)
23,TTTACATGAATTTGATTATTCTAACACTAGCTTTTAAGTTCGGAGTCACCTAGTGCAG,3560 fluorescence intensity (a.u.)
24,CTATCATGTGATAGATTTCCTTAACGTGTACAAGAAACATCGGAGTCACCTAGTGCAG,3590 fluorescence intensity (a.u.)
25,CAATGTTAATTTAACAAAACTAAATTTACATTTTAGATATCGGAGTCACCTAGTGCAG,25300 fluorescence intensity (a.u.)
26,ATGGCGTAATTAGGCTCAAAAGATTTGTCTCTCAATTTATCGGAGTCACCTAGTGCAG,7950 fluorescence intensity (a.u.)
27,GATAATTAGGAATAGATACCTGTAAAATAAGTAGGAGGATCGGAGTCACCTAGTGCAG,19900 fluorescence intensity (a.u.)

row,Sequence,binding signal
1,CCCACAACTGATTACCATGGATGCAAACAAGTTCCACATGCGGAGTCACCTAGTGCAG,20200 fluorescence intensity (a.u.)
2,GGTCGTGATTTACGTCTGAATGAGGTTTGTCTTGGTATTTCGGAGTCACCTAGTGCAG,17800 fluorescence intensity (a.u.)
3,ATAGCTTGTTTAATAATAAATTTATAAGATGACATGATTTCGGAGTCACCTAGTGCAG,8570 fluorescence intensity (a.u.)
4,GCCCGTAATTAAATGTAATGTGTTGTTCGATTATCCGGTGCGGAGTCACCTAGTGCAG,29200 fluorescence intensity (a.u.)
5,AGATAGGTGTGGACGGACGTGATTGGCTGCGTATCAGTTGCGGAGTCACCTAGTGCAG,12700 fluorescence intensity (a.u.)
6,TTCAGTTTCTAGCTGGAAGAGACCTCCTATCATATATTTCCGGAGTCACCTAGTGCAG,53600 fluorescence intensity (a.u.)
7,GGTCATTCCTGTGTTTTGTAATCCTCTGTTTTATACTTATCGGAGTCACCTAGTGCAG,4120 fluorescence intensity (a.u.)
8,CAAACTAATTTTGGAAAGCATGAAGCACAAAATTAGAATGCGGAGTCACCTAGTGCAG,6900 fluorescence intensity (a.u.)
9,AAAATTAACATAATTATCAGTACGGATTCATACTCCGTAACGGAGTCACCTAGTGCAG,29700 fluorescence intensity (a.u.)
10,ATTAATTAATTAGTCGGCCAACCTAGCTGTTGACTGGGAACGGAGTCACCTAGTGCAG,55900 fluorescence intensity (a.u.)
11,TGATCAATGAACAATCAATCATGGACATAGATAGATCACGCGGAGTCACCTAGTGCAG,22700 fluorescence intensity (a.u.)
12,CTGCACTAATTGCACTCCCATCTAAAATTTATCGAATTTTCGGAGTCACCTAGTGCAG,8030 fluorescence intensity (a.u.)
13,GTCTAATAATTGTTGGTTGTTAGAACTTAGAAGGCTATGTCGGAGTCACCTAGTGCAG,11000 fluorescence intensity (a.u.)
14,ATATCAAATTTTCTTCCTGTTAATCAGAATAAGAGGTCAACGGAGTCACCTAGTGCAG,4400 fluorescence intensity (a.u.)
15,GTATAACTGTTGTTTCCTCATTTACAGTTCCCCATTTCCCCGGAGTCACCTAGTGCAG,4710 fluorescence intensity (a.u.)
16,TGAAATTGATGAAAATTAGTGTTTCTAAAATTAAATTTCGCGGAGTCACCTAGTGCAG,47800 fluorescence intensity (a.u.)
17,TGACTCATTAGCATATAATTAATTAAGTATAGCTAATAAACGGAGTCACCTAGTGCAG,7250 fluorescence intensity (a.u.)
18,TTGATTAATCAATTATGGTATATCTAGAACCATATATAATCGGAGTCACCTAGTGCAG,22700 fluorescence intensity (a.u.)
19,GATTAATTAGGCTCATTAGATTCGTCTCGCAAATTAGTCCCGGAGTCACCTAGTGCAG,35000 fluorescence intensity (a.u.)
20,TAAATAGTTCCAATTAGCATTCAGAAATTGGGGTCTAGATCGGAGTCACCTAGTGCAG,14100 fluorescence intensity (a.u.)
21,AACAGACAGATCATACCCATAATTACAAGTACCGATTATGCGGAGTCACCTAGTGCAG,7320 fluorescence intensity (a.u.)
22,CATATATAATAGATTAGCTATAAGGTTGGCTACAATTTTCCGGAGTCACCTAGTGCAG,7500 fluorescence intensity (a.u.)
23,TTTAATTTGTTTATTATACCAGCACTCAGTTAAGATACTTCGGAGTCACCTAGTGCAG,16500 fluorescence intensity (a.u.)
24,GCTATAAGATTGGCTATAATTTTCTTCTCCTCTCTCTATCCGGAGTCACCTAGTGCAG,26600 fluorescence intensity (a.u.)
25,GCCCAGATTGATTCGGAAGCAATGGTTTACGATCCAATTCCGGAGTCACCTAGTGCAG,29600 fluorescence intensity (a.u.)
26,ATGTCTGTCTGTCTAGATTTATTAACATATATATGAATTTCGGAGTCACCTAGTGCAG,4200 fluorescence intensity (a.u.)
27,ATGATGATGGGAACCATATGAGTTATTAGTGTAGTACTCCCGGAGTCACCTAGTGCAG,4180 fluorescence intensity (a.u.)
